The source gives no read counts; variants with many changes may rest on few reads.
B1: OR4K15 (parent)
chain: GUUAACGGUCAUAGGCCAUGGAAACUAGGAGCACCAUUUCGCUGCCAGUGAAGAAAUGAACAAAGAAAAUCUGGGCCAGGCAGGCAUCAAAAGAAAUAGUCUUGCGCUCAACCAGAAAGUCUGUAAUCAUUUUAAGGGUA

Variants of: B1
Test: self-cleavage, relative activity (ratio to wild type); higher = more cleavage; in vitro, sequencing; the parent is a self-cleaving ribozyme

Variant | self-cleavage
U9C U19C A47G A94G A116G A125G U127A | 0.23
U9C A54G U70C A91G U102C A129C | 0.48
U9C A33U A36G U49C | 1.6
U9C A117U A126G | 0.84
U9C A27G A69G A94G U108C | 0.03
U9C A11C A23U U38C | 1.05
G8A A18G A89U A125U | 1.41
U9C A59G A82G A94G | 0.77
U9C A52G A96G C128A | 0.38
U9C A23G A60G U97A | 1.55
U9C A23G A94U | 1.74
U9A A67G A95G | 2.19
G7A U43C A60G A67G | 1.15
U9C A56G A60G A69G | 0.61
U9C A66G A90G | 0.91
U9C A11U A24U A52G | 0.98
G8A A67G A78G G138U | 0.33
G8A A22G A118G | 0.92
U9C A24U A78G A91U G93A U97A U102C | 0.53
U9C A11U G79U | 0.19
U9C A24G U87C U120G | 1.66

Variant | self-cleavage
U9C A27G A67G | 1.66
U9C G15C U39C A63U | 1.77
U9C A24G U72C | 0.4
U9C A33G A78G A92G U97C | 0.13
U9C A94G U103C | 1.38
G7U A18U A27U U122G | 1.6
G7U U43C A92U | 0.32
G7U C77U U124C | 0.86
U9C U12C A18G U49A A55G A62U U72C U131C | 0.27
U9A C10G A51G A69G C85A A89U C113U | 0
U9C A30G A117G | 1.97
U9C A96U U97C | 1.91
U9C A23U A125G | 0.86
U9C A54G A92G | 1.63
U9C A92G U122C | 1.31
G7A A95G U97C | 1.02
U9C A36C A92C A117G U124A | 1.3
G7A U102C U108C | 0.01
U9C A47G A60U A78G U108A | 0.02
U9C A23G A64G | 1.09
U9C A55G A110U | 1.48

Variant | self-cleavage
G7U A11G U12C U43A A91G A116U U127C | 0.24
U9C A33G U87C A92G U103C U133C | 0.34
U9C C107U U108C | 0.04
U9C A22G U49C A59U A86G A94G | 2.24
U9C A60C U108A | 0.01
U9C A56C A96G | 2.07
G8A U108A A110G | 0.08
U9A U12C A95G | 0.96
G7A U87C A116G | 0.37
U9C G14C A47G A82G | 0.56
U9C G44A A55G U124C | 1.23
U9A A110G A116G | 0.12
G7U C35U U72C U103C | 0.03
G7A U38C A54C A89G U139C | 2.13
U9A U26A U37C U97C A118G U133C | 1.62
U9A G79A A95G | 0.06
U9C A78G U120C | 0.11
U9C G14C U19A A54U | 0.99
U9C A36G A68G U132C | 1.96
U9A C32U U49C U72A A86G | 0.14
U9C A22G A47G U132C | 0.86

Variant | self-cleavage
U9A U26C A56G A63G U102C | 1.95
U9A U37C A86G U127C | 1.05
U9C A13U A86U U102A U120C | 0.25
U9A U38C U43C U49C A62G U127C G137U | 0.43
G7U A52G A54G A78G U87C | 0.14
U9A A68G U120C A126G | 0.57
G7U A24G A56G A67G A68G | 0.55
U9C A18G A47G C71U A91G A118G | 0.19
U9A A27U A68G A82G G106U A126G | 0
U9A A22G U103C U108C | 0.03
G8U C61U A68C A110G | 0.31
U9C A95G U100C | 2.21
U9A A114C U122C | 0.01
U9C A22G A24G A92G U130C | 1.21
G8U A92G U131C | 2.5
U9C A33G U39C | 2.22
U9C A36G U43C A59G U127C | 0.82
U9A A60G A126G | 0.71
U9C A23G A60G A63U A68G U127C | 0.22
G7A U26A A47C A82G A118G | 0.11
U9C A82G A92G A126G | 0.37

Reference: the RNAGym collection of RNA variant scans (doi:10.7554/elife.90254)
